Test results: PubChem BioAssay AID1508624 (National Center for Advancing Translational Sciences (NCATS), 2021)
Where “and” joins values, the source holds several entries; their conditions need not be identical. Equal values may be shown once. Among all 48,000 compounds or so, about 120 (0.25%) were called active. This list was built around the results that the source calls inconclusive (neither active nor inactive); the mix of calls is not that of the screen. Calls follow the shape of the dose curve; as a rule, active = well fitted activation curve with a large enough effect; inconclusive = small, poorly fitted or top-dose-only effect, or another doubt; inactive = no such curve, though single readings can be large or run the other way. Potencies beside an inconclusive call are fits to weak or partial responses and may not hold up.

assay: Primary qHTS for Identification of Small Molecule Activators of Huntingtin-Antisense Promoter Activity; conditions: HEK293 HTT-AS promoter firefly luciferase reporter, 24 h; activity change, positive = activation: at 57.5 µM (top of the series), percent change from vehicle, -100% = no light unless noted; also: nearly all actives have a fitted effect of over 55% in size
Summary of the method: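 Firefly luciferase signal from promoter-reporter HEK293 cells was scaled between vehicle (0%) and zero RLU (-100%). Compounds were tested at final concentrations of up to 57.5 uM over 24 h at 37 degrees C. PTC124 at 50 uM final served as control inhibitor.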
Potency is read from the fitted curve at half-maximal effect; tags tell the direction and shape of the fitted curve.

Potency, active:
Cc1ccc(C)c(NC(=O)c2ccc3c(c2)CCCN3S(C)(=O)=O)c1 7.94 µM

Potency, inconclusive:
CCOc1ccccc1CNC(=O)c1cccc(NC(=O)c2nsc3ccccc23)c1 1 µM [activator, partial curve, poor fit], O=C(Cn1nc2c(cc1=O)CCCC2)NCc1ccccc1Cl 25.1 µM [activator, single point], COc1ccc(CNC(=O)CN2C(=O)CC(c3ccc(C)c(C)c3)=Nc3ccccc32)cc1 10 µM [activator, partial curve], CCC(=O)NCCc1nc2cc(NC(=O)c3cccc(Br)c3)ccc2n1C 1 µM [activator, partial curve, poor fit], CCNC(=O)c1ccc2c(c1)nc1n2CCCCC1 4.47 µM [activator, full curve], CCOc1ccc(C(=O)Nc2cc(-c3nc4cc(OC)ccc4o3)ccc2C)cc1[N+](=O)[O-] 1.26 µM [activator, partial curve, poor fit], CCN(Cc1ccccc1)C(=O)c1cc(-c2ccccc2)n[nH]1 2 µM [activator, full curve], CC(C)CN1CCc2nc(Nc3ccc(F)cc3F)ncc2C1 10 µM [activator, partial curve], Cc1ccc2scc(N3CCC(C)CC3)c(=O)c2c1 1.58 µM [activator, partial curve, poor fit], COc1ccc(CN(C)c2ccc(-c3nc(-c4ccccc4)no3)cc2[N+](=O)[O-])cc1 1.41 µM [activator, full curve, poor fit], COc1ccc2c(CC(=O)Nc3ccc(C)cc3)coc2c1 10 µM [activator, partial curve, poor fit], CCCCC(=O)Nc1cccc(OCc2cc(=O)n3ccccc3n2)c1 3.55 µM [activator, full curve], CN(C(=O)CSc1nnc2[nH]c(=O)cc(-c3ccccc3)n12)c1ccccc1 20 µM [activator, single point], Cn1cc(CN(C(=O)Nc2ccc(Cl)c(Cl)c2)C2CCCCC2)c2ccccc21 7.08 µM [activator, single point], CCc1ccccc1NC(=O)c1nnn(-c2ccc(F)cc2)c1C 3.16 µM [activator, full curve], COc1cc2ccccc2cc1C(=O)Nc1ccc2oc(-c3ccc(F)cc3)nc2c1 10 µM [activator, partial curve], O=C(CCCCCCC(=O)Nc1ccccc1)NO 12.6 µM [activator, partial curve] and 19.3 µM [activator, partial curve], O=C(Nc1cc2cc[nH]c2cn1)c1ccccc1 0.273 µM [activator, full curve], COc1ccccc1-c1noc(-c2ccc(N3CCC(C)CC3)c([N+](=O)[O-])c2)n1 1.58 µM [activator, full curve, poor fit], Cc1ccc(Cl)cc1NC(=O)c1oc2c(c1C)-c1[nH]ncc1CC2 10 µM [activator, partial curve, poor fit], CCOc1cccc2cc(-c3nc(-c4ccccc4C)no3)c(=O)oc12 2.82 µM [activator, full curve], CCOC(=O)c1cccc(NC(=O)c2oc3c(c2C)-c2[nH]ncc2CC3)c1 5.62 µM [activator, partial curve], c1ccc(-n2ncc3c(NC4CCCC4)ncnc32)cc1 1 µM [activator, partial curve, poor fit], Cc1ccc(Cc2cn3cc(-c4ccc(F)cc4)nc3s2)cc1 1 µM [activator, partial curve, poor fit], Cc1ccccc1CSc1ccc(-c2cccs2)nn1 3.55 µM [activator, full curve, poor fit], CCC(=O)N1CCc2cc(CNS(=O)(=O)c3cccs3)ccc21 2.24 µM [activator, full curve, poor fit], COc1ccc(-c2cc3ccc(O)c(CN4CCCC4)c3oc2=O)cc1 8.91 µM [activator, partial curve, poor fit], Cc1cc(OC(C)C(=O)Nc2cccc(-c3nc4ccccc4o3)c2)cc(C)c1Cl (stereo not given) 12.6 µM [activator, partial curve], Cc1ccccc1COC(=O)c1nn(-c2ccccc2)nc1N 15.8 µM [activator, partial curve], COCCCN1CCC(NC(=O)c2cc(Cl)c(N)c3c2OCC3)CC1 6.11 µM [activator, partial curve], CC1CCCCN1C(=O)CSc1nc(-c2ccccc2)no1 (stereo not given) 8.91 µM [activator, full curve], Cc1ccccc1NC(=O)c1cc2c([nH]c1=O)CC(C)(C)CC2=O 1 µM [activator, full curve], CC1CCCCN1CCNC(=O)c1ccc(Cn2c(SCc3ccccc3)nc3cccnc32)cc1 (stereo not given) 15.8 µM [activator, partial curve, poor fit], Cc1ccc(CSc2nc3cccnc3n2Cc2ccc(C(=O)NC3CC3)cc2)cc1 1.41 µM [activator, full curve, poor fit], O=[N+]([O-])c1cc(-c2nc(-c3ccccc3)no2)ccc1NCc1ccco1 1.78 µM [activator, full curve, poor fit], CC(=O)c1ccc(Oc2ncnc3c2oc2ccccc23)cc1 1.26 µM [activator, full curve, poor fit], Cc1ccc2scc(N3CCCCC3C)c(=O)c2c1 (stereo not given) 0.891 µM [activator, partial curve, poor fit], Brc1ccccc1-n1ncc2c1ncn1nc(Cc3ccccc3)nc21 10 µM [activator, partial curve], O=C(CSc1nnc(NC(=O)NC2CCCCC2)s1)Nc1ccccc1F 28.2 µM [activator, single point], COc1cccc(NC(=O)c2sc3nc(N4CCOCC4)c4c(c3c2N)CC(C)(C)OC4)c1 15.8 µM [activator, partial curve], Cc1ccccc1CCNC(=O)c1ccc2c(c1)c(C)c(C)n2C 14.1 µM [activator, single point], Cc1cccc(NC(=O)c2cccc(N3CCCS3(=O)=O)c2)c1 8.91 µM [activator, full curve], Cc1ccc(C2CC(=O)n3nc(-c4ccc(F)cc4)nc3S2)cc1 (stereo not given) 0.355 µM [activator, full curve, poor fit], Cc1cc2nn(-c3ccccc3)nc2cc1NC(=O)Cc1ccc(Cl)cc1 25.1 µM [activator, partial curve], COc1ccc(-c2nsc(NC(=O)c3ccccc3Br)n2)cc1 10 µM [activator, partial curve]

Potency, inactive:
Cc1ccc2c(c1)c(=O)c1ccccc1n2CCCC(=O)Nc1ccc(C)c(F)c1, COc1ccc(Nc2ncnc3sc4c(c23)CCCC4)cc1, O=C(Nc1cccc(Cl)c1)C1CCCN(c2nn3cc(-c4ccc(F)cc4)nc3s2)C1 (stereo not given), CN1CCN(CCCNC(=O)c2cnn(-c3ccccc3)c2C2CCN(C(=O)OC(C)(C)C)CC2)CC1, Cc1ccc2c(CNCCc3ccc(Cl)cc3)c(C(=O)O)n(Cc3ccc(F)cc3)c2c1, O=c1c2sc3ccccc3c2n(Cc2ccccc2)c(=O)n1Cc1ccccc1, Cc1ccc(NC(=O)CC(C)S(=O)(=O)c2ccc3c(c2)NC(=O)CO3)c(C)c1 (stereo not given), COc1ccc(-n2ccnc(NCc3ccc(Cl)cc3)c2=O)cc1, CCOC(=O)c1c(N)n(-c2cccc(OC)c2)c2nc3ccccc3nc12, COc1cc(C(=O)Nc2cc3c(cc2C)n(C)c(=O)c(=O)n3C)cc(OC)c1OC, CCN(C(=O)C1CCN(S(=O)(=O)c2cc(Br)cc3c2N(C(C)=O)CC3)CC1)c1cccc(C)c1, Cc1nc2ccccc2c(=O)n1-c1ccc(NC(=O)c2ccccc2[N+](=O)[O-])cc1, O=C(CC1N=C2c3ccccc3N=C(SCc3ccc(Cl)cc3)N2C1=O)NCCc1ccccc1 (stereo not given), CCc1nn(CC(=O)NC(C)CC)c(=O)c2cc3occc3n12 (stereo not given)

Activity change, positive = activation, inconclusive:
CCOC(=O)c1ccc(NC(=O)c2oc3ccc4c(c3c2C)C(=O)CC(C)(CC)O4)cc1 (stereo not given) -56% [activator], O=C(c1ccc2c(Cl)c3c(nc2c1)CCCC3)N1CCN(c2ccccc2)CC1 -29% [activator], CCCN(C(=O)c1cc2c(s1)-c1ccccc1OC2)c1ccccc1F -20.1% [activator], Cc1ccc(-n2ncc3c(N4CCCCCC4)ncnc32)cc1 -89.5% [activator], COCCCNC(=O)c1ccc2c(c1)N=C(C)c1c(C)ccc(C)c1S2 -45.7% [activator]
